Read counts are not given, so values of variants with three or more changes are uncertain.
B1: LINE1-full (parent)
chain: UACGUAGGUGGUUUUCCCCUGAUAGUGCUAAGGGGGCCUGGAAGUUUGGACUGGGCAGAGCUCAACACAGCGUGGCAAAGUGGCUGUGGCUAGACUGCCUCUCUGGAUUCCUCGUCACUCAGCAGGGCAUCUCUGAGAGAAAUGCC

Variants of: B1
Assay: self-cleavage, relative activity (ratio to wild type); higher = more cleavage; in vitro, sequencing; the parent is a self-cleaving ribozyme

Row | Variant | self-cleavage
1 | U15C A64G A124G A129G | 0.27
2 | C18U U115A U143C | 0.46
3 | A79G U85A U96A | 0
4 | U9C U26A U87C | 0.24
5 | U39A A57U U134C | 0.11
6 | U9C A64G U104C A140G A142G | 0
7 | A30G G48A G83U | 0.72
8 | U39A A67G G139A | 0.56
9 | A57U A77U A107G U112C | 0.15
10 | U13C A24G U26C A79G U85A C123A | 0.29
11 | U20G A31U U112C A124G U132C A138G | 0
12 | G54A U85C U104G | 0
13 | A65G A69G U100C | 0
14 | G8U U46C A69U | 0.02
15 | A42G U46C U96C G125A | 0.18
16 | C90A A107C U115C | 0.05
17 | C51U A69G U100C A138G | 0
18 | U13C U73G G97A | 0.12
19 | U13C A22G U47A | 1.36
20 | A24G G35A G53A | 0.75
21 | U14C U20C C71U U96C | 0
22 | U104A C110U A121G | 1.11
23 | U26C U39A C63U A78G A79U | 0.23
24 | U20A A22G A50G U96C | 0.22

Row | Variant | self-cleavage
25 | U91A A129G C146U | 1.01
26 | U39C A59G U85A U100C | 0
27 | U20A G74A U81C | 0.92
28 | U14C U20A A69U | 0.11
29 | U29A A50G C113U A142G | 0.74
30 | U13C G60U A67G | 0.02
31 | A57U U62C A64U U100A A141G A142G | 0.05
32 | U14A A24G U45A A67G A79U U134C | 0.32
33 | C95U U102C U119C A129U | 0.32
34 | U9C A42G A64C | 0.96
35 | U26C G32A U46C A64U A77G U115A | 1.04
36 | U20A A42U A77G A138G | 2.27
37 | A42G A64U U85C | 0.14
38 | U13C U14C A31G A141G | 1.58
39 | U85G U108C U109A A136G U143C | 0
40 | U47C U85C U130C | 0.67
41 | A43G U62C U109C | 0
42 | A30U U96C C145G | 0.73
43 | A42G U46C U62A U109A | 0.11
44 | U26A U47C U62C A79G A121U U134C | 0
45 | G53U A79G U104A U130C | 1.68
46 | U9C A30G U62A C116U U119C | 0
47 | A50G A79G U143G | 0.78
48 | A6U U13A A42G | 1.53

Row | Variant | self-cleavage
49 | C38U A57G A64U U87C C113U | 0.06
50 | U26C A42G U109C A142G | 1.62
51 | U47C A64C U91A C120U A124G | 0.16
52 | U39C C84U U115A | 0.12
53 | G54A U115C U119C A141G | 1.93
54 | U52C A92U U112C | 1.13
55 | U47C U96A A141G U143C | 0.06
56 | U52C U91C A136G A140G | 0.33
57 | U52A U108A U132C | 2.12
58 | A31G U47C U62C U85A | 0.17
59 | U9A U29C U81A | 1.02
60 | U1A G36A A59U U62C A136G | 0.07
61 | U26C A92U A129U | 0.93
62 | G27A U62A A77U | 0.02
63 | U13C U87A U134C | 0.06
64 | A92G U100A U104C | 0.86
65 | U12C U23C G40U A67U A117G A124U | 0.2
66 | U14C A69G U96C A141G | 0
67 | U1C U102C C116G | 0.95
68 | A31G A65G C98U U102A | 0
69 | A6G A22G U62A C76U A79G U85C C128U A129G | 0.23
70 | C71U U96C U102C | 0.52
71 | C84U A107G A129C | 0.22
72 | U26A U39C A64C A65U U115C U134C | 0

Row | Variant | self-cleavage
73 | U1C A59G U73C G126A | 0
74 | A65G A117U U130C | 0.02
75 | U52C A57G U109A | 0.3
76 | U13C A22G U132C A140G | 0.73
77 | A94G U134G A140G | 0.17
78 | U1C U14C G86A | 0.12
79 | G34U C99U A107G | 0.85
80 | U100A U134C A142U | 0.59
81 | A64G A69G C103U | 0
82 | A31G G33A A43G A79G | 0.31
83 | A64U A69G A78G G80A A141G | 0.11
84 | U29C A59U G72A A77G A107G | 1.97
85 | U12C U52C U134C | 1.84
86 | A59G A64U C71A U73C | 0.02
87 | A79G U96A A140G | 0.09
88 | U9C A79G U119C | 1.47
89 | G82A U87A U132C | 0.09
90 | A2G A24U A77U | 1.49
91 | U46A A50G A92G A140G | 0.08
92 | G34U A43G U46C U91C | 0
93 | U29C C56U A136G | 0.38
94 | A2G A69G G106U A121G | 0.47
95 | U20G U62C C99U U134A | 0.11
96 | U52A A77G C113A | 1.92

Row | Variant | self-cleavage
97 | U115C A136G A141G | 0.92
98 | U26A U112A A141G | 1.01
99 | U14C A42G A67U A94G | 0.08
100 | U14C A65G U104A | 0.09
101 | U9A U15C A136U | 1.58
102 | A6G U13C A22U A42G C99U | 0.4
103 | C19A A69G G135A | 0.44
104 | G11U A30U A65G | 0
105 | U26G A50C U130C | 1.41
106 | U5A G74A U134A A136G | 1.26
107 | U12G U39C U96C | 0.21
108 | A43U U45C U47A | 1.25
109 | U47A A117U A142G | 1.14
110 | U62C A64G C110A A129G | 0.1
111 | A69C U130A U132A | 0.14
112 | A50G U104A U143A | 1.08
113 | A64G A79G A124G | 0
114 | U15C C19U A124G | 0.51
115 | U26C U46G G105A U108C A124G C131U | 0.96
116 | G7A U23A G82A | 2.1
117 | U9C U13C A57G G75A G125U | 0.23
118 | U73A A78G U109C U132C A138G | 0.2
119 | C111U U119C A141G | 1.9
120 | A22U U45C A69C | 0.17

Row | Variant | self-cleavage
121 | A57G U62A U102A | 0.13
122 | C37U A94G A142U | 0.16
123 | U15A A50G U100C | 1.81
124 | U13G G27A G54A U81C | 0.48
125 | U62C A65G U85C A94U | 0
126 | U9A A67U G72A A136U | 0.11
127 | U52C A78G U81A U132C | 0.28
128 | U26A G58U U73A | 0.07
129 | U29C U47A U119C | 1.64
130 | U39A A50U A136G | 1.11
131 | U15A A30U U52C | 1.28
132 | A129G A140U U143A | 0.22
133 | G36A A64U U132A | 0
134 | U46C U73A A140G | 1.24
135 | U15A U85C C133U A142G U143A | 0.63
136 | U13C A69G U73C | 0
137 | U14C U15C C19U U104A | 1.19
138 | C37A U39C G86A U91C | 0.07
139 | G32C G53U U81A | 1.15
140 | C84A A117C A124U | 0.22
141 | A92G U100C A121G | 0
142 | U46A U52G G54U A107G U132C | 0.4
143 | U39A U45C G97A | 0.06
144 | A92G U96A C128A | 0.02

Row | Variant | self-cleavage
145 | U9A C37U U81C U115C | 1.7
146 | A57G G58A A67G | 0.09
147 | U9C A22G U26C A107G | 0
148 | U9A G11A A42G | 2.35
149 | C17U U46C A124C | 1.91
150 | U62C C113U A140U | 0.05
151 | G25A C63U A92G A140C | 0
152 | A43C A69U A77G A92G | 0.77
153 | C113U U132C U143G | 1.36
154 | U12G U29C A43G A57U | 0.3
155 | A57U A64U U112C A140G | 0.05
156 | U1A U9C G10A A77G | 1.59
157 | U1C A77G A78G G106A U130C | 0.51
158 | G48U U87A U96C A107G | 0.07
159 | U9A U23A A30G | 1.48
160 | G32A U87C A138U | 0.16
161 | U39C A77G C123U | 1.16
162 | U45C A65G U104C | 0
163 | U15C U20A U130G | 1.73
164 | G11A U14C A57U | 0.11
165 | A30G A43U A79G | 1.15
166 | U15A C113U U119C A141U C145U | 0.57
167 | U14C U20C A22U A78G G114A | 1.23

Source: the RNAGym collection of RNA variant scans (doi:10.7554/elife.90254)
